# According to the supplement of paper PMC8728848:
# This is one part of the list.
# How the values were obtained:
# Experiment in all cases: glycan array binding signal (z-score within array); higher = stronger binding
# Details in all cases: glycan notation: IUPAC condensed, linker removed
# [1] = target: Gal(b1-4)GlcNAc(b1-3)Gal(b1-3)GlcNAc
# In short: (§1)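 Glycan array data came from 3228 arrays in the Consortium for Functional Glycomics database, and only arrays with an available protein sequence were kept. Glycan names were put into IUPAC-condensed notation, and columns mapping to the same glycan were averaged. The binding signal is a within-array Z-score, averaged across arrays of one protein sequence run at different concentrations or buffers and across linkers. A negative Z-score can be read as non-binding.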
# [2] = target: Gal(b1-4)GlcNAc(b1-3)Gal(b1-4)Glc
# In short: as §1
# [3] = target: Gal(b1-4)GlcNAc(b1-3)Gal(b1-4)GlcNAc
# In short: as §1
# [4] = target: Gal(b1-4)GlcNAc(b1-3)Gal(b1-4)GlcNAc(b1-3)Gal(b1-4)GlcNAc
# In short: as §1
# [5] = target: Gal(b1-4)GlcNAc(b1-3)Gal(b1-4)[Fuc(a1-3)]GlcNAc(b1-3)Gal(b1-4)[Fuc(a1-3)]GlcNAc
# In short: as §1
# [6] = target: Gal(b1-4)GlcNAc(b1-3)GalNAc
# In short: as §1
# [7] = target: Gal(b1-4)GlcNAc(b1-3)[Gal(b1-4)GlcNAc(b1-6)]Gal(b1-4)GlcNAc
# In short: as §1
# [8] = target: Gal(b1-4)GlcNAc(b1-3)[GlcNAc(b1-6)]Gal(b1-4)GlcNAc
# In short: as §1
# [9] = target: Gal(b1-4)GlcNAc(b1-6)Gal(b1-4)GlcNAc
# In short: as §1
# [10] = target: Gal(b1-4)GlcNAc(b1-6)Gal(b1-4)GlcNAc(b1-6)GalNAc
# In short: as §1
# [11] = target: Gal(b1-4)GlcNAc(b1-6)GalNAc
# In short: as §1
# [12] = target: Gal(b1-4)GlcNAc(b1-6)[Gal(b1-3)]GalNAc
# In short: as §1
# Gal3S(b1-3)GalNAc = target: Gal3S(b1-3)GalNAc
# In short: as §1
# Gal3S(b1-3)GlcNAc = target: Gal3S(b1-3)GlcNAc
# In short: as §1
# [13] = target: Gal3S(b1-3)[Fuc(a1-4)]GlcNAc
# In short: as §1
# Gal3S(b1-4)Glc = target: Gal3S(b1-4)Glc
# In short: as §1
# Gal3S(b1-4)Glc6S = target: Gal3S(b1-4)Glc6S
# In short: as §1
# Gal3S(b1-4)GlcNAc = target: Gal3S(b1-4)GlcNAc
# In short: as §1
# Gal3S(b1-4)GlcNAc6S = target: Gal3S(b1-4)GlcNAc6S
# In short: as §1
# [14] = target: Gal3S(b1-4)[Fuc(a1-3)]Glc
# In short: as §1
# Gal3S4S(b1-4)GlcNAc = target: Gal3S4S(b1-4)GlcNAc
# In short: as §1
# Gal3S6S(b1-4)GlcNAc = target: Gal3S6S(b1-4)GlcNAc
# In short: as §1
# Gal3S6S(b1-4)GlcNAc6S = target: Gal3S6S(b1-4)GlcNAc6S
# In short: as §1
# Gal4S(b1-4)GlcNAc = target: Gal4S(b1-4)GlcNAc
# In short: as §1
# Gal4S6S(b1-4)GlcNAc = target: Gal4S6S(b1-4)GlcNAc
# In short: as §1
# Gal6S(b1-4)Glc = target: Gal6S(b1-4)Glc
# In short: as §1
# Gal6S(b1-4)Glc6S = target: Gal6S(b1-4)Glc6S
# In short: as §1
# Gal6S(b1-4)GlcNAc = target: Gal6S(b1-4)GlcNAc
# In short: as §1
# Gal6S(b1-4)GlcNAc6S = target: Gal6S(b1-4)GlcNAc6S
# In short: as §1
# GalNAc(a1-3)Gal = target: GalNAc(a1-3)Gal
# In short: as §1
# GalNAc(a1-3)GalNAc = target: GalNAc(a1-3)GalNAc
# In short: as §1
# GalNAc(b1-3)Gal = target: GalNAc(b1-3)Gal
# In short: as §1
# [15] = target: GalNAc(b1-3)Gal(a1-4)Gal(b1-4)GlcNAc
# In short: as §1
# [16] = target: GalNAc(b1-3)Gal(a1-4)Gal(b1-4)GlcNAc(b1-3)Gal(b1-4)Glc
# In short: as §1
# GalNAc(b1-3)GalNAc = target: GalNAc(b1-3)GalNAc
# In short: as §1
# GalNAc(b1-4)GlcNAc = target: GalNAc(b1-4)GlcNAc
# In short: as §1
# [17] = target: GalNAc(b1-4)GlcNAc(b1-2)Man(a1-3)[GalNAc(b1-4)GlcNAc(b1-2)Man(a1-6)]Man(b1-4)GlcNAc(b1-4)GlcNAc
# In short: as §1
# Glc(a1-4)Glc = target: Glc(a1-4)Glc
# In short: as §1
binder,measurement,setting,value
"GIINTLQKYYCRVRGGRCAVLSCLPKEEQIGKCSTRGRKCCRRKK [Beta-Defensin 3 (Homo sapiens), P81534]",glycan array binding signal (z-score),[1],-0.467
same,glycan array binding signal (z-score),[2],-0.43
same,glycan array binding signal (z-score),[3],-0.53
same,glycan array binding signal (z-score),[4],-0.59
same,glycan array binding signal (z-score),[5],-0.477
same,glycan array binding signal (z-score),[6],-0.215
same,glycan array binding signal (z-score),[7],-0.621
same,glycan array binding signal (z-score),[8],-0.661
same,glycan array binding signal (z-score),[9],-0.485
same,glycan array binding signal (z-score),[10],-0.145
same,glycan array binding signal (z-score),[11],-0.537
same,glycan array binding signal (z-score),[12],-0.302
same,glycan array binding signal (z-score),Gal3S(b1-3)GalNAc,0.073
same,glycan array binding signal (z-score),Gal3S(b1-3)GlcNAc,0.98
same,glycan array binding signal (z-score),[13],0.072
same,glycan array binding signal (z-score),Gal3S(b1-4)Glc,0.012
same,glycan array binding signal (z-score),Gal3S(b1-4)Glc6S,4.37
same,glycan array binding signal (z-score),Gal3S(b1-4)GlcNAc,0.025
same,glycan array binding signal (z-score),Gal3S(b1-4)GlcNAc6S,0.696
same,glycan array binding signal (z-score),[14],0.062
same,glycan array binding signal (z-score),Gal3S4S(b1-4)GlcNAc,4.31
same,glycan array binding signal (z-score),Gal3S6S(b1-4)GlcNAc,0.35
same,glycan array binding signal (z-score),Gal3S6S(b1-4)GlcNAc6S,3.11
same,glycan array binding signal (z-score),Gal4S(b1-4)GlcNAc,0.126
same,glycan array binding signal (z-score),Gal4S6S(b1-4)GlcNAc,1.24
same,glycan array binding signal (z-score),Gal6S(b1-4)Glc,1.46
same,glycan array binding signal (z-score),Gal6S(b1-4)Glc6S,2.6
same,glycan array binding signal (z-score),Gal6S(b1-4)GlcNAc,0.19
same,glycan array binding signal (z-score),Gal6S(b1-4)GlcNAc6S,-0.794
same,glycan array binding signal (z-score),GalNAc(a1-3)Gal,-0.428
same,glycan array binding signal (z-score),GalNAc(a1-3)GalNAc,-0.477
same,glycan array binding signal (z-score),GalNAc(b1-3)Gal,-0.217
same,glycan array binding signal (z-score),[15],-0.35
same,glycan array binding signal (z-score),[16],0.457
same,glycan array binding signal (z-score),GalNAc(b1-3)GalNAc,-0.213
same,glycan array binding signal (z-score),GalNAc(b1-4)GlcNAc,-0.484
same,glycan array binding signal (z-score),[17],-0.501
same,glycan array binding signal (z-score),Glc(a1-4)Glc,0.053
